This is an account of results in ChEMBL document CHEMBL4888484, “Replenishing the malaria drug discovery pipeline: Screening and hit evaluation of the MMV Hit Generation Library 1 (HGL1) against asexual blood stage Plasmodium falciparum ,using a nano luciferase reporter read-out” (2022).

The campaign covered roughly 150,000 compounds. About 540 (0.36%) showed an effect of 50% or more. This is one part of the list.

The assay has as its system Plasmodium falciparum. Kind of assay: Primary screen in NF54 nanoGlo assay, in single point, at 2uM, 72h; a lower Z score goes with more inhibition. It counts as functional, Erythrocyte. The following applies: timepoint 72 hour.
`Cc1ccc(N2CCN(Cc3nc(C(=O)Nc4ccc(F)cc4)co3)CC2)cc1`: the % Inhibition (commonly the relative decrease from the control value, in per cent) is on record as -14% and the Z score came to 1.33.

As for `Cc1noc(C)c1CN1CC(c2nc(CCN(C)C(=O)C3CCOCC3)no2)C1`, the “% Inhibition” value is reported as 1% and the Z score is on record as -0.12.

For `COc1ccc(OCc2nc3ccc(F)cc3o2)c(C(N)=O)c1`, the “% Inhibition” value was -14% and the Z score was determined as 1.44.

Consider `O=C(c1n[nH]c2c1CCCC2)N1CCCCC1`, for which the “% Inhibition” value was -10% and the Z score amounted to 1.52.

On to `COCc1noc([C@@H]2CN(C(=O)CCc3c(C)noc3C)C[C@H]2C(N)=O)n1`, for which the “% Inhibition” value is -14% and the Z score was 2.13.

For `COc1cccc([C@H]2CN(Cc3csc(C)n3)C[C@@H]2C(=O)O)c1OC`, the “% Inhibition” value is listed as -6% and the Z score was determined as 0.78.

Take `CCNC(=O)Cn1ccc(N[C@@H](C)COC)n1`: the “% Inhibition” value is -7% and the Z score is 0.94.

With `COC(=O)c1cccc(NCc2nc3cccnc3s2)c1`, the “% Inhibition” value was -2% and the Z score came out at 0.18.

Take `CNC(=O)[C@@H]1CCCN1c1ccc2nnc(C(F)(F)F)n2n1`: the “% Inhibition” value is -10% and the Z score came to 1.71.

Regarding `Cc1ccsc1-c1nc(-c2ccc(S(=O)(=O)N3CCC(C)CC3)cc2)no1`, the “% Inhibition” value is -5% and the Z score is on record as 0.82.

For the compound `CC(C)C[C@@H](NC(=O)Nc1cccc(F)c1)C(=O)OC(C)(C)C`, the “% Inhibition” value is listed as 0% and the Z score is -0.02.

For `CCC1CCCCN1C(=O)CC1(c2ccccc2OC)CC(=O)N(CCCOC)C1=O` (stereo not drawn), the “% Inhibition” value is reported as 16% and the Z score was -2.14.

Turning to `CCc1nc(COc2ccc(C(=O)N3CCC[C@H](C(=O)O)C3)cc2)no1`, the “% Inhibition” value is reported as -10% and the Z score amounted to 1.34.

`C[C@H](NC(=O)c1[nH]cnc1C(=O)c1ccccc1)c1nccs1`: the “% Inhibition” value stood at 0% and the Z score is listed as -0.05.

Take `CCCc1oncc1C(=O)N1CCCN(CC2CC2)[C@H](C(C)C)C1`: the “% Inhibition” value turned out to be 23% and the Z score was -3.16.

As to `CCN(CC)C(=O)c1ccc(N)c(C)c1`, the “% Inhibition” value was -11% and the Z score is reported as 2.

`CC(C)c1nc(CC(=O)NC(C)C2CCCO2)cs1` (stereo not drawn): the “% Inhibition” value was -4% and the Z score stood at 0.59.

For the compound `Cn1cc(CCN2CCCC[C@H]2C(=O)OC(C)(C)C)cn1`, the “% Inhibition” value is recorded as -10% and the Z score is 1.99.

Regarding `COCCNCCOc1cccc(Br)c1`, the “% Inhibition” value is reported as -11% and the Z score was 1.54.

Take `Cc1nccc(NC2CCCCCC2CO)n1` (stereo not drawn): the “% Inhibition” value is reported as 1% and the Z score is -0.14.

As for `Cc1cccc(C(=O)N2CCC[C@H]2C(=O)Nc2cc(Cl)ccc2Cl)n1`, the “% Inhibition” value is recorded as -3% and the Z score was 0.32.

For `Cc1nn(C)c(-n2cccn2)c1C(=O)NCC(C)(C)O`, the “% Inhibition” value is listed as -3% and the Z score is recorded as 0.55.

On to `C/C=C(\C)CN1C[C@H](NC(=O)CN2CCCCC2=O)[C@@H](C2CC2)C1`, for which the “% Inhibition” value is reported as -5% and the Z score turned out to be 1.02.

With `Cc1nccc(-c2ccccc2)c1C(=O)N1CCC[C@H](c2nc(CC(C)C)no2)C1`, the “% Inhibition” value is given as -16% and the Z score is given as 2.43.
